Measurements: PubChem BioAssay (Tox21)
“And” between values parts separate entries of the source, which are not always exact repeats. Equal values may be shown once. The inconclusive results got no clear call from the source; some entries with a clear call stand among them for comparison. For some assays here: A potency beside an inconclusive call is a rough fit, not a confirmed value. Some structures have more than one record in an assay (separate samples or runs), and their calls can disagree. The source made the active and inactive calls. Calls follow the shape of the dose curve; as a rule, active = well fitted curve in the direction sought with a large enough effect in the repeat runs; inconclusive = weak or mixed curves; inactive = no such curve, though single readings can be large; an effect the other way counts as inactive or inconclusive.

Tests used:
[1] = A CellTox Green Cytotoxicity Assay to monitor cytotoxicity in HepG2 cells - 24 hour (AID 1224878); also: potency is read from the fitted curve at half-maximal effect; nearly all actives have a fitted effect of over 45% in size
Outline: (§1)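 Cells and non-lytic dye reagent are dispensed together (600 HepG2 cells/well) and incubated 5 h before DMSO compound transfer. Kinetic fluorescence is then recorded in the same wells during 40 h at 37 C.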

[2] = A CellTox Green Cytotoxicity Assay to monitor cytotoxicity in HepG2 cells - 40 hour (AID 1224879); also: nearly all actives have a fitted effect of over 40% in size; also: potency is read from the fitted curve at half-maximal effect
Outline: as §1

[3] = A CellTox Green Cytotoxicity Assay to monitor cytotoxicity in HepG2 cells - 32 hour (AID 1224883); also: nearly all actives have a fitted effect of over 50% in size; also: potency is read from the fitted curve at half-maximal effect
Outline: as §1

[4] = A CellTox Green Cytotoxicity Assay to monitor cytotoxicity in HEK293 cells - 8 hour (AID 1224884); also: potency is read from the fitted curve at half-maximal effect; nearly all actives have a fitted effect of over 35% in size
Outline: (§2)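 Cells (HEK293, 600/well) and dye reagent are dispensed together. After 5 h at 37 C, 23 nL compound is pinned in. Plates stay at 37 C for 40 h with fluorescence read at 0h, 8h, 16h, 24h, 32h and 40h.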

[5] = A CellTox Green Cytotoxicity Assay to monitor cytotoxicity in HEK293 cells - 32 hour (AID 1224881); also: nearly all actives have a fitted effect of over 40% in size; also: potency is read from the fitted curve at half-maximal effect
Outline: as §2

[6] = qHTS RealTime-Glo MT Cell Viability Assay in HEK293 cells - 0 hour (AID 1224880); also: nearly all actives have a fitted effect of over 45% in size; also: potency is read from the fitted curve at half-maximal effect
Outline: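 Real-time viability in HEK293: signal arises when living cells convert a prosubstrate for NanoLuc in the medium, so luminescence tracks viable cell number. Compound (23 nL, DMSO) added 5 h post-seeding; kinetic reads at 0–40 h, 37 C.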

[7] = A CellTox Green Cytotoxicity Assay to monitor cytotoxicity in HepG2 cells - 0 hour (AID 1224882); also: nearly all actives have a fitted effect of over 35% in size
Outline: as §1
Tags tell the direction and shape of the fitted curve.

Q: With `Clc1ccccc1-c1ccccc1Cl` as the molecule, how does the Potency [1] read?
A: The Potency was inconclusive: 27.9 µM [activator, partial curve].

Q: And the Potency [2]?
A: Its Potency is inconclusive: 31.4 µM [activator, partial curve].

Q: And the Potency [3]?
A: The Potency was inconclusive: 31.4 µM [activator, partial curve].

Q: What about the Potency [4] of the same molecule?
A: The Potency was inconclusive: 35.2 µM [activator, partial curve].

Q: With `c1ccc(-c2ccccc2)cc1` as the molecule, how does the Potency [2] read?
A: Its Potency is active: 49.4 µM and inactive.

Q: With `COCCC#N` as the molecule, how does the Potency [2] read?
A: Its Potency is “inactive”.

Q: With `CCCCCCCCCC(CC)c1ccc(S(=O)(=O)O)cc1` (centres undefined) as the molecule, how does the Potency [2] read?
A: The Potency was inconclusive: 54.9 µM [activator, single point] [middle of 5 runs].

Q: And the Potency [4]?
A: Its Potency is inconclusive: 55.5 µM [activator, single point] and inconclusive: 13.8 µM [activator, partial curve].

Q: With `O=C/C(Cl)=C(/Cl)C(=O)O` as the molecule, how does the Potency [2] read?
A: The Potency was inconclusive: 54.9 µM [activator, single point].

Q: Which Potency [2] does the source give for `c1ccc2cc3c(cc2c1)-c1cccc2cccc-3c12` here?
A: The Potency was inconclusive: 3.05 µM [activator, partial curve, poor fit].

Q: With `O=C(NC(O)C(Cl)(Cl)Cl)NC(O)C(Cl)(Cl)Cl` (centres undefined) as the molecule, how does the Potency [5] read?
A: The Potency was “inactive”.

Q: For `CC(C)COP(=O)(OCC(C)C)OCC(C)C`, which Potency [6] is on record?
A: The Potency was inconclusive: 54.9 µM [rising, partial curve, poor fit].

Q: With `COP(=O)(OC)OC(Br)C(Cl)(Cl)Br` (centres undefined) as the molecule, how does the Potency [2] read?
A: The Potency was inconclusive: 54.9 µM [activator, single point].

Q: Which Potency [6] does the source give for `COc1ccccc1OC` here?
A: The Potency was “inactive”.

Q: Which Potency [2] does the source give for `CC(=O)C(Cl)Cl` here?
A: Its Potency is inconclusive: 55.9 µM [activator, single point].

Q: With `CCCN(CCC)CCc1c[nH]c2ccccc12` as the molecule, how does the Potency [2] read?
A: Its Potency is inconclusive: 54.2 µM [activator, single point].

Q: What about the Potency [3] of the same molecule?
A: Its Potency is inconclusive: 48.3 µM [activator, single point].

Q: Which Potency [6] does the source give for `O=S1(=O)OC(c2cc(Br)c(O)c(Br)c2)(c2cc(Br)c(O)c(Br)c2)c2ccccc21` here?
A: The Potency was active: 10 µM.

Q: Which Potency [6] does the source give for `CCCCC/C=C\C/C=C\C/C=C\C/C=C\CCCC(=O)NCC(=O)O` here?
A: Its Potency is inconclusive: 26.8 µM [falling, partial curve, poor fit].

Q: Which Potency [2] does the source give for `CCOC(=O)COc1cc(-c2nn(C)c(OC(F)F)c2Cl)c(F)cc1Cl` here?
A: The Potency was “inactive”.

Q: And the Potency [6]?
A: The Potency was “inactive”.

Q: Which Potency [2] does the source give for `CC(C)Oc1cc(-n2nc(C(C)(C)C)oc2=O)c(Cl)cc1Cl` here?
A: The Potency was “inactive”.

Q: And the Potency [4]?
A: The Potency was inconclusive: 0.682 µM [activator, partial curve].

Q: For `N#CC(Cl)Cl`, which Potency [2] is on record?
A: The Potency was active: 1.2 µM.

Q: What about the Potency [6] of the same molecule?
A: The Potency was “inactive”.

Q: What about the Potency [3] of the same molecule?
A: The Potency was “inactive”.

Q: For `CNC(=O)CSP(=O)(OC)OC`, which Potency [6] is on record?
A: The Potency was “inactive”.

Q: With `Cc1cc(N=Nc2ccccc2C)ccc1N` as the molecule, how does the Potency [6] read?
A: Its Potency is inconclusive: 34.7 µM [falling, partial curve, poor fit].

Q: And the Potency [5]?
A: The Potency was inconclusive: 54.9 µM [activator, single point] and inconclusive: 49 µM [activator, single point].

Q: And the Potency [3]?
A: The Potency was inconclusive: 24.5 µM [activator, single point] and inconclusive: 13.8 µM [activator, partial curve].

Q: What about the Potency [4] of the same molecule?
A: The Potency was inconclusive: 61.6 µM [activator, single point].

Q: Which Potency [2] does the source give for `C=CCc1ccc(OC(=O)Cc2ccccc2)c(OC)c1` here?
A: The Potency was inconclusive: 54.9 µM [activator, single point].

Q: What about the Potency [3] of the same molecule?
A: The Potency was inconclusive: 61.6 µM [activator, single point].

Q: What does the source list for `CC(c1ccc(O)cc1)(c1ccc(O)cc1)c1ccc(O)cc1`?
A: Potency [2]: inconclusive: 49 µM [activator, single point]; Potency [6]: inconclusive: 43.6 µM [falling, partial curve]

Q: For `COCC(C)N(C(=O)CCl)c1c(C)csc1C` (centres undefined), which Potency [2] is on record?
A: Its Potency is inconclusive: 54.9 µM [activator, partial curve, poor fit].

Q: What about the Potency [3] of the same molecule?
A: The Potency was inconclusive: 61.6 µM [activator, partial curve, poor fit].

Q: Which Potency [2] does the source give for `Oc1cc(Cl)c(Cl)c(Cl)c1` here?
A: Its Potency is inconclusive: 52.1 µM [activator, single point].

Q: And the Potency [3]?
A: The Potency was inconclusive: 58.5 µM [activator, single point].

Q: With `C=CC1(C)OC(=O)N(c2cc(Cl)cc(Cl)c2)C1=O` (centres undefined) as the molecule, how does the Potency [5] read?
A: Its Potency is “inactive”.

Q: For `CCC[CH2][Sn]([CH2]CCC)([CH2]CCC)[CH2]CCC`, which Potency [6] is on record?
A: The Potency was inconclusive: 69.2 µM [rising, single point].

Q: What about the Potency [4] of the same molecule?
A: The Potency was active: 49 µM.

Q: Which Potency [2] does the source give for `COC(=O)c1sccc1S(=O)(=O)NC(=O)Nc1nc(C)nc(OC)n1` here?
A: The Potency was “inactive”.

Q: And the Potency [7]?
A: Its Potency is “inactive”.
